SMILES strings stand for the structures. Whole data set: some 110,000 compounds, median “z-score” near -0.1, cut for the highest 2% near 2. This is one part of the list. Calls of active or inactive are those of the source.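 Rule for the calls: active = z-score in the third read window above 3 or below -3; inactive = the rest.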

This test concerns the target Metabotropic glutamate receptor 8 (Rattus norvegicus) (UniProt P70579). The test can be described thus: rat mGluR8 modulators via GIRK flux, primary screen, cell-based, thallium flux, HTS (AID 488969). The conditions noted are these: HEK293 rat mGluR8, GIRK (G protein-gated inwardly rectifying potassium channel) thallium flux, FluoZin2; at 10 µM; stronger effect = higher value; submaximal glutamate (EC20) added with thallium.
UniProt P70579, sequence (P70579 whole entry, looked up): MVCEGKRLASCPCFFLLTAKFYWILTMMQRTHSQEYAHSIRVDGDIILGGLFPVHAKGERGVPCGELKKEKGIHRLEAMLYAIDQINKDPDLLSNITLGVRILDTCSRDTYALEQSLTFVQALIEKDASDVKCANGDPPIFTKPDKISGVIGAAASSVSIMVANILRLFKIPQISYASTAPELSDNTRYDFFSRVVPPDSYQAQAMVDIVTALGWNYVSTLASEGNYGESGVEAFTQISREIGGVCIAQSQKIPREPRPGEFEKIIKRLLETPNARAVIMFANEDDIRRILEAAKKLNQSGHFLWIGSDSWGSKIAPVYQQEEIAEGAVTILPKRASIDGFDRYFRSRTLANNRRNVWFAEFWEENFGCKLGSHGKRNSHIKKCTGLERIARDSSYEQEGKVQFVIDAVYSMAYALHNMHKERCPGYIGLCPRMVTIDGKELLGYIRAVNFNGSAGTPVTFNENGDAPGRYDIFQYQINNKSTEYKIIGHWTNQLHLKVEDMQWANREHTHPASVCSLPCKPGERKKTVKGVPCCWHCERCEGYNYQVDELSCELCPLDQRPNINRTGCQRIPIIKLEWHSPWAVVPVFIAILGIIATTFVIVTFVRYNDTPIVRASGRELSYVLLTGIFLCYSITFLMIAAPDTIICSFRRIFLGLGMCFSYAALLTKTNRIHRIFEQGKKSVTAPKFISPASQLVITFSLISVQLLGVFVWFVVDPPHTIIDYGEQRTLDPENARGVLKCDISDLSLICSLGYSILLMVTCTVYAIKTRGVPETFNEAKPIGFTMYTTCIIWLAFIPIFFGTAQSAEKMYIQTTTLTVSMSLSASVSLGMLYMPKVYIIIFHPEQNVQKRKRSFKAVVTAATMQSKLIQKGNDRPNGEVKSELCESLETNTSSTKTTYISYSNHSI
`CCOC(=O)c1c(C)n(C)c2ccc(OCC(O)CN(CC)CC)cc12` (centres undefined): the z-score was 0.554.
The result for `COc1ccc(NS(=O)(=O)c2ccc3c(c2)n(C)c(=O)n3C)cc1` reads 0.174.
Then `CCC(C)n1[nH]c(=O)c2c(C)cc(C)nc21` (centres undefined), with 0.609; and `C=CCSc1nnc(-c2sc(-c3ccccc3)nc2C)n1C`, with -0.24.
In turn, `COc1ccc(S(=O)(=O)N2CCC(C(=O)NCC3CCCO3)CC2)cc1` (centres undefined) came in with a z-score of 0.371.
The compound `Cc1ccc(NC(=O)COC(=O)Cn2nc(C)c([N+](=O)[O-])c2C)c([N+](=O)[O-])c1` gave a z-score of -0.0642.
The result for `CCOC(=O)CSc1nc2c(c(=O)[nH]c(=O)n2C)n1CCCc1ccccc1` reads -0.157; that for `Cc1c(C(=O)N2CCCCCC2)nnn1-c1nonc1N`, 0.063.
`Cc1no[n+]([O-])c1COc1ccc(/C=C2\NC(=S)NC2=O)cc1` had a z-score of -0.00802.
In the case of `CC(CN1CCOCC1)C(=O)O` (centres undefined), the z-score was determined as 0.239.
Regarding `Nc1c(CO)nnn1-c1ccccc1`, the z-score is -0.379.
Then `Cc1cc2c(cc1C)CSC(c1ccc3ccccc3c1O)SC2`, with -0.287; and `CCOC(=O)c1c(-c2ccc(C)o2)csc1NC(=O)COC(=O)c1ccc(NC(N)=O)cc1`, with -0.383; and `COc1ccc2c(c1OC)C(=O)N1c3ccccc3N=C(c3ccc([N+](=O)[O-])cc3)CC21` (centres undefined), with -0.351.
The result for `C1CCC(n2nnnc2CN2CCCC2)CC1` reads -0.256.
As for `CC(=O)c1c(C)[nH]c(C(=O)Nc2c(C)n(C)n(-c3ccccc3)c2=O)c1C`, the z-score is -0.542.
As for `Cc1ccc2cc(/C=N/NC(=O)CN3CCOCC3)c(Cl)nc2c1`, the z-score is -0.0884.
Regarding `CCN(CC)Cc1c(CC(C)C)oc(C)c1C(=O)O`, the z-score stood at 0.246.
Compound `COc1ccc(C2(C(=O)NC3CCCCC3)CCOCC2)cc1OC` had a z-score of -1.5.
The result for `Cc1ccccc1Cn1ccc(NC(=O)c2nc3ncccn3n2)n1` reads -1.29.
For the compound `COc1ccc(CCn2c(N)c(C#N)c3nc4ccccc4nc32)cc1OC`, the z-score was 0.417.
In the case of `Cc1ccc(C(=O)CSc2cnc3ccccc3n2)cc1C`, the z-score was -0.0357.
Turning to `Cn1c(=O)[nH]c(=O)c2c1nc(NCc1ccccc1)n2CC(O)c1ccccc1` (centres undefined), the z-score worked out at 0.332.
The compound `COc1ccccc1C(CNC(=O)c1ccc(S(=O)(=O)NCc2ccco2)cc1)N(C)C` (centres undefined) yielded a z-score of -0.112.
Compound `Cc1cc(Nc2ccccc2Cl)n2nnnc2n1` displayed a z-score of 0.826.
In turn, `CC(=O)Nc1ccc(NC(=O)Cn2cc3c(n2)CCC(C)C3)cc1` (centres undefined) displayed a z-score of 0.325.
In the case of `Cc1cc(C#N)c(C)n1-c1cc(C(F)(F)F)ccc1N1CCOCC1`, the z-score is -0.333.
Compound `CN1CCN(CCc2nc3cc(NC(=O)COc4ccccc4)ccc3n2C)CC1` displayed a z-score of -0.261.
`Cc1c(NC(=O)c2ccc(Cl)c(S(=O)(=O)N3CCOCC3)c2)c(=O)n(-c2ccccc2)n1C` displayed a z-score of -0.296.
Compound `Cc1ccc(C(=O)O/N=C(/c2nonc2N)N(C)C)cc1` displayed a z-score of -0.0384.
In the case of `CC(=O)C1=C(C)NC(SCc2ccc(C#N)cc2)=C(C#N)C1c1ccco1` (centres undefined), the z-score is active: 5.85.
On to `NS(=O)(=O)c1ccc(NC(=O)CN2CCN(Cc3ccccc3)CC2)cc1`, for which the z-score was 0.629.
Then `COc1ccc(/C=C/C(=O)c2cc(F)ccc2OC(=O)c2ccccc2)cc1OC`, with -0.291; and `CCCCNC(=O)C(Sc1ccccc1)c1ccccc1` (centres undefined), with -0.515; and `CCOC(=O)C1=C(CN2CCC(C)CC2)NC(=O)NC1c1ccc(Cl)cc1` (centres undefined), with -0.112.
The result for `CC(=NCCCn1ccnc1)c1c(-c2ccccc2)[nH]n(-c2nc3ccccc3s2)c1=O` reads -0.357.
The result for `Cc1cc(-c2nn3c(-c4ccccc4)nnc3s2)c2ccccc2n1` reads -0.635.
Regarding `CC(=O)Nc1ccc(S(=O)(=O)Nc2nc(-c3ccc(C(C)(C)C)cc3)cs2)cc1`, the z-score is 0.0667.
Compound `Cc1c(/C=N/N2C(=O)C3C4C=CC(C4)C3C2=O)c2ccccc2n1C` (centres undefined) returned a z-score of -0.125.
The result for `CCOC(=O)N1CCC(NC(=O)C(Cc2ccccc2)NC(=O)C2CCCCC2)CC1` (centres undefined) reads -0.251.
Take `O=C(Nc1ccccc1Cl)NC1(C(=O)NCCCN2CCOCC2)CCCCC1`: the z-score is -0.514.
The compound `CCOc1ccc(-c2nc(CSc3nnc(N)s3)cs2)cc1` yielded a z-score of -0.282.
`COc1ccccc1N1C(=O)CC(Sc2nccc(C)n2)C1=O` (centres undefined) came in with a z-score of 1.42.
Then `O=C(Nc1ccc(S(=O)(=O)Nc2ncccn2)cc1)c1ccc(Br)s1`, with 0.347.
With `Cc1cccc(C(=O)Nc2cccc(C(=O)N3CCOCC3)c2)c1`, the z-score came to 0.616.
On to `CC1=C(C(=O)Nc2ccccc2C)C(c2ccc(C)o2)N2C(=O)CSC2=N1` (centres undefined), for which the z-score was determined as 0.284.
Then `CN(NC(=O)c1cccc(Cl)c1)c1nc(-c2ccccc2)nnc1C(F)(F)F`, with -0.0813; and `Cc1ccc(S(=O)(=O)N(CC(=O)N2CCN(c3ccccc3F)CC2)C2CCCCC2)cc1`, with -0.459; and `CCOC(=O)c1ccc(NC(=O)N2CCN(CCc3ccccc3)CC2)cc1`, with -0.758.
The compound `CCn1c(C(C)NC(C)=O)nc2ccccc21` (centres undefined) gave a z-score of -0.358.
On to `COc1ccc(CCN2C(=O)NC(NC(=O)CCc3ccccc3)(C(F)(F)F)C2=O)cc1OC` (centres undefined), for which the z-score was -0.276.
For `CCCOc1ccc(N2C(=O)CC(NCCc3ccc(S(N)(=O)=O)cc3)C2=O)cc1` (centres undefined), the z-score was -0.206.
`O=C(O)/C=C/C(=O)Nc1ccc(Oc2ccc(NC(=O)/C=C/C(=O)O)cc2)cc1` showed a z-score of -0.19.
Regarding `CCCC(=O)Nc1cccc(NC(=O)c2cccc([N+](=O)[O-])c2C)c1`, the z-score came to 1.04.
The result for `CC(C)CCNC(=O)CCn1nc(-c2ccccc2)ccc1=O` reads -0.445; that for `CCCC(=NCCc1c(C)[nH]c2ccccc12)C1=C(O)CC(c2ccccc2)CC1=O` (centres undefined), 0.13.
`CCOC(=O)N1CCC(NC(=O)C2=C(C)C(=O)OC23CCC(C)CC3)CC1` (centres undefined) registered a z-score of -1.59.
For the compound `Cn1c(=O)c(-[n+]2ccccc2)c([O-])c2ccccc21`, the z-score is -0.0632.
As to `CC1CCc2c(nc3nc[nH]n3c2=O)C1` (centres undefined), the z-score is -1.14.
In the case of `CCOc1ccc(NC(=O)CSc2nc(C)cc(C)n2)cc1`, the z-score came to 0.67.
`CCOc1cc(C(=O)Nc2ccc(S(=O)(=O)Nc3cc(C)on3)cc2)cc(OCC)c1OCC`: the z-score was -1.18.
Then `CCOC(=O)C1CCN(Cc2ccc(F)cc2)CC1`, with 0.459; and `COc1cc(/C=N/N2CCN(C3c4ccccc4-c4ccccc43)CC2)cc(OC)c1OC`, with -0.118.
With `CCOc1ccc(-n2c(SCC(=O)Nc3ccccc3C)n[nH]c2=O)cc1`, the z-score was -0.0269.
For the compound `CCCc1ccc(-c2csc(NC(=O)Cc3cccs3)n2)cc1`, the z-score is -0.124.
Turning to `COc1ccc(NC(=O)C2CCCCN2N)cc1OC` (centres undefined), the z-score is -0.0931.
For `C=C1C(C(=O)N2CCN(C)CC2)C1C(=O)N1CCN(C)CC1` (centres undefined), the z-score was -0.401.
Consider `C=CCN1C(=O)C(C(C)CC)NC1=S` (centres undefined), for which the z-score is -0.0458.
For the compound `O=C(CN1CCN(CCO)CC1)Nc1ccccc1`, the z-score was -0.0301.
In turn, `Cc1cnc2cc(Cl)c(Cl)cc2n1` registered a z-score of -0.703.
With `Cc1ccc2[nH]c3c(=O)n(CCN4CCNCC4)cnc3c2c1`, the z-score was 0.652.
In turn, `CCC(C)(C(=O)NC1CCCCC1)N(C(=O)c1ccccn1)c1ccccc1` (centres undefined) came in with a z-score of 0.961.
Then `COc1ccc(NS(=O)(=O)c2cc(C)ccc2OC)cc1OC`, with 0.501; and `COc1ccc(S(=O)NC2CCCCC2)c(OC)c1C` (centres undefined), with -0.439.
Then `Cc1ccc(NC(=O)c2ccco2)cc1NC(=O)CSc1nnc(-c2cccs2)n1C`, with -1.02.
With `CCCC(=O)Nc1ccc(C(=O)NNC(=S)NC(=O)c2cccs2)cc1`, the z-score was -0.0886.
For the compound `CCCn1c(SCC(=O)Nc2ccccc2Oc2ccccc2)n[nH]c1=O`, the z-score stood at 0.137.
In turn, `Cc1cc(C(=O)NCc2cccs2)n(-c2ccccc2)n1` registered a z-score of -0.362.
Compound `CN1CCN(C(=O)C23CCC(C)(c4nc5ccccc5nc42)C3(C)C)CC1` (centres undefined) yielded a z-score of -0.481.
For `CC1CCN(C(=O)C2CCN(S(=O)(=O)c3cnc[nH]3)CC2)CC1`, the z-score is -1.27.
As for `CCCNS(=O)(=O)c1ccc(OCC(=O)NCc2ccc3c(c2)OCO3)cc1`, the z-score stood at 0.648.
The compound `Cc1cc(C)nc(SCC(=O)Nc2ncc3c(n2)CCCC3=O)n1` gave a z-score of -0.264.
Then `COc1ccccc1OCC(=O)NN=C(Cc1ccccc1)Cc1ccccc1`, with -0.606.
Consider `CCOc1ccc(CCNC(=O)c2cc3ccccn3n2)cc1OCC`, for which the z-score was -0.476.
`COc1ccc(NC(=O)COc2ccc(C(=O)NC3CCCc4ccccc43)cc2OC)cc1` (centres undefined) gave a z-score of 0.0361.
The result for `COc1ccc2ncc(S(=O)(=O)c3ccccc3)c(N3CCC4(CC3)OCCO4)c2c1` reads -0.776; that for `Cn1c(OCc2ccc3c(c2)OCO3)nc2c1c(=O)n(Cc1ccc(Cl)c(Cl)c1)c(=O)n2C`, -0.393.
Then `CCN(CC(=O)Nc1c(C(=O)OC)[nH]c2ccc(Cl)cc12)c1ccc2c(c1)OCO2`, with 0.184.
As for `Cc1cc(C(F)F)n2nc(C(=O)Nc3ccc(F)cc3F)nc2n1`, the z-score is -0.044.
The result for `CC(CNCC1CCCO1)COc1cccc2ccccc12` (centres undefined) reads 0.285; that for `COc1ccc(N2CCCn3c2nc2c3c(=O)n(Cc3ccccc3F)c(=O)n2C)c(OC)c1`, active: -4.26; that for `CCN(C(=O)COc1cc(=O)n(CC)c2ccccc12)c1cccc(Cl)c1`, -1.59.
Turning to `Cc1cccc(-n2nnnc2SCc2csc(-c3ccccc3)n2)c1`, the z-score is -0.0119.
`CC12CCC(C(=O)N(c3ccccc3Cl)C1=O)C2(C)C` (centres undefined) returned a z-score of 0.208.
As for `O=S(=O)(Nc1cccc2nsnc12)c1ccccc1`, the z-score turned out to be 0.265.
`O=C(O)C1CCCCC1C(=O)NCCCc1ccccc1` (centres undefined) gave a z-score of 0.0918.
Then `COc1cc(/C=N/NC(=O)c2cccnc2)ccc1OCC(=O)Nc1c(C)cc(C)cc1C`, with -0.566; and `COc1cccc(C(=O)NCCSc2ccc(C)cc2)c1`, with 0.21.
With `CC1CCCN(S(=O)(=O)c2ccc(N(C(=O)c3cnccn3)C(C(=O)NC3CCCCC3)c3cccs3)cc2)C1` (centres undefined), the z-score was -0.0389.
Compound `Cc1cc(N2CCN(c3ccc(F)cc3)CC2)nc(-c2ccccc2)n1` yielded a z-score of -0.298.
For the compound `CC1CCN(c2cc(N)c(Cl)cc2[N+](=O)[O-])CC1`, the z-score is -0.475.
The result for `O=C(Oc1ccc2c(-c3ccccc3)cc(=O)oc2c1)c1cccs1` reads -0.508.
`Cc1cccc(OCCCC(=O)NCc2ccco2)c1` gave a z-score of -0.0562.
In the case of `CCOC(=O)CSc1nnc(CNC(=O)c2ccc(OC)cc2)n1-c1ccc(OC)cc1`, the z-score came to 0.729.
As for `O=C(CCn1nc(-c2ccc(Cl)cc2)ccc1=O)NCc1ccccn1`, the z-score is -0.522.
Then `Cc1ccccc1Nc1nnc(SCc2cc([N+](=O)[O-])cc3c2OCOC3)s1`, with -0.061; and `COc1cccc(-c2nc(CSCC(=O)N3CCc4ccccc43)c(C)o2)c1`, with -0.531; and `CCOC(=O)CSc1nc(NCc2ccco2)c2ccccc2n1`, with 1.29.
As for `Cc1ccc(/C=N/N=C/c2ccc(C)s2)s1`, the z-score is -0.249.

The values are drawn from PubChem BioAssay AID488969 (Vanderbilt High Throughput Screening Facility, 2010).
